Assay results published in paper PMC6541620.
Results are given in words; binding and its absence hold for the method and conditions named. For some assays here: Binding seen in cells or lysates may run through a third protein. Some entries that bind do so weakly or less than the wild type. For some assays here: Sequences can lack the tags named with a protein. One block for each molecule: values may come before it.

The chains behind the UniProt entries cited, without tags or fusion partners. Where a name states a change or a piece, a line headed by the entry shows the natural chain unless it says otherwise. A line that says so, or that is headed by a name, gives the form on record, which may keep a tag or linker.
UniProt Q8TEP8: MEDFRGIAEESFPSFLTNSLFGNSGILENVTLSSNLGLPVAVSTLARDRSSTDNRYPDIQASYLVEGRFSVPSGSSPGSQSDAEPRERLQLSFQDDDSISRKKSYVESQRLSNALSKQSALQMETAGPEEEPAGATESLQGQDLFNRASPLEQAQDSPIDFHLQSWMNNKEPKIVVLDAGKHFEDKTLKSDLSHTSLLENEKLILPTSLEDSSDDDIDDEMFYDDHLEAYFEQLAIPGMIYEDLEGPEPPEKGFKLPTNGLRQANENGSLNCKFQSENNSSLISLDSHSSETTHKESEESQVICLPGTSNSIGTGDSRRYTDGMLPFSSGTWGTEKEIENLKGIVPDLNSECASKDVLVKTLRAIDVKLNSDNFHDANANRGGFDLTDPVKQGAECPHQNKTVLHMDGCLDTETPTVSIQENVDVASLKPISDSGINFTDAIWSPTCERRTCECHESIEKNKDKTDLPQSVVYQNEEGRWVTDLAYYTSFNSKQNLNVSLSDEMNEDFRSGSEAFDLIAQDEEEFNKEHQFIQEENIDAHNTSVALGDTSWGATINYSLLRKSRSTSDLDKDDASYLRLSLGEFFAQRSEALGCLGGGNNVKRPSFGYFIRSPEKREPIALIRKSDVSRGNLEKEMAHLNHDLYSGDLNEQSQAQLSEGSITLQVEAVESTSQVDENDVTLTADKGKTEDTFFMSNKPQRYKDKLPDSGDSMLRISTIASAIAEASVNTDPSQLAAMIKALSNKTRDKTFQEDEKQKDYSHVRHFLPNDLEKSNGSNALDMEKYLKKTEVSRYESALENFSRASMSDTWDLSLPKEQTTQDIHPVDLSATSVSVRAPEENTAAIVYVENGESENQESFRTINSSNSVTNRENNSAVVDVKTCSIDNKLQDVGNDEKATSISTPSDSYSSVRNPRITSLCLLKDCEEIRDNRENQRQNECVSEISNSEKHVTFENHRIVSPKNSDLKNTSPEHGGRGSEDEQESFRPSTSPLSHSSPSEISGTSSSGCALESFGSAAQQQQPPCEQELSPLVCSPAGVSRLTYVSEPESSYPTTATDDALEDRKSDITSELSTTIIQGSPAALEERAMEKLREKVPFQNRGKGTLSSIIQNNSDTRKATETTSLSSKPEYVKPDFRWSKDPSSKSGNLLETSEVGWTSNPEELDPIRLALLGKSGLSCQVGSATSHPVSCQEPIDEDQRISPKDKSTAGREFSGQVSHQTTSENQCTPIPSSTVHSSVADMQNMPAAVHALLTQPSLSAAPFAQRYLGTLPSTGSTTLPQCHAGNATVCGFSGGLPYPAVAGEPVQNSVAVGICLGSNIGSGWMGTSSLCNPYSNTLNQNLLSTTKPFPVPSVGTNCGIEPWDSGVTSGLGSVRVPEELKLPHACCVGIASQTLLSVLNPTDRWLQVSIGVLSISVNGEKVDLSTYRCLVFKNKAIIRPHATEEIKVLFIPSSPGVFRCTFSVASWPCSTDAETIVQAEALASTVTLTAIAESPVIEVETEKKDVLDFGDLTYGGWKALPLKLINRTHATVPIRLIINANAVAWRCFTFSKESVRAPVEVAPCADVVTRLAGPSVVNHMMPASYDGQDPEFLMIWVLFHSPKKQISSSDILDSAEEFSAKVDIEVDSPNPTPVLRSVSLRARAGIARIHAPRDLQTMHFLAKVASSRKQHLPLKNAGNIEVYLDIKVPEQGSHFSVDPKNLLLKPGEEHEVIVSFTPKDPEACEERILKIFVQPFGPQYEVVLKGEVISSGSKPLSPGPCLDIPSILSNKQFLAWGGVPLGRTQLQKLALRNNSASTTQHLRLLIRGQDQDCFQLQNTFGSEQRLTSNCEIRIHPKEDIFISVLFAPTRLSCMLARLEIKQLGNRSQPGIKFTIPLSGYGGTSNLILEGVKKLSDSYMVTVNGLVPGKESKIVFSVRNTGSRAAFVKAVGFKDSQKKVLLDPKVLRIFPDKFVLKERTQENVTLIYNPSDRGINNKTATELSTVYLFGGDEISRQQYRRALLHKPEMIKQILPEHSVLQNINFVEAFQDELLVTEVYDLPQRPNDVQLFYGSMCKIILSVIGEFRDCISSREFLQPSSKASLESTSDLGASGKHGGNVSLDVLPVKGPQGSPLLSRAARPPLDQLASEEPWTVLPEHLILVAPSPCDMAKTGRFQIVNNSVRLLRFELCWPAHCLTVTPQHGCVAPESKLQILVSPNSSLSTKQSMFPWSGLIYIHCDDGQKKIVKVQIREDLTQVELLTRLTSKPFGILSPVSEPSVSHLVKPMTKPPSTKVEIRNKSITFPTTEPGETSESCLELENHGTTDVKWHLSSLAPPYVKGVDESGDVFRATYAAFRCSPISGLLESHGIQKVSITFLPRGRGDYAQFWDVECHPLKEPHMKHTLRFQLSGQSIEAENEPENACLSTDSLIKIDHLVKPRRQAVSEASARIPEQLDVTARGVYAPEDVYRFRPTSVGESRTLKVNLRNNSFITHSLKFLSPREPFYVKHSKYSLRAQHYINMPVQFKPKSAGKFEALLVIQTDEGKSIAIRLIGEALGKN
CEP192 isoform-2 (1–1941) (Q8TEP8, form named): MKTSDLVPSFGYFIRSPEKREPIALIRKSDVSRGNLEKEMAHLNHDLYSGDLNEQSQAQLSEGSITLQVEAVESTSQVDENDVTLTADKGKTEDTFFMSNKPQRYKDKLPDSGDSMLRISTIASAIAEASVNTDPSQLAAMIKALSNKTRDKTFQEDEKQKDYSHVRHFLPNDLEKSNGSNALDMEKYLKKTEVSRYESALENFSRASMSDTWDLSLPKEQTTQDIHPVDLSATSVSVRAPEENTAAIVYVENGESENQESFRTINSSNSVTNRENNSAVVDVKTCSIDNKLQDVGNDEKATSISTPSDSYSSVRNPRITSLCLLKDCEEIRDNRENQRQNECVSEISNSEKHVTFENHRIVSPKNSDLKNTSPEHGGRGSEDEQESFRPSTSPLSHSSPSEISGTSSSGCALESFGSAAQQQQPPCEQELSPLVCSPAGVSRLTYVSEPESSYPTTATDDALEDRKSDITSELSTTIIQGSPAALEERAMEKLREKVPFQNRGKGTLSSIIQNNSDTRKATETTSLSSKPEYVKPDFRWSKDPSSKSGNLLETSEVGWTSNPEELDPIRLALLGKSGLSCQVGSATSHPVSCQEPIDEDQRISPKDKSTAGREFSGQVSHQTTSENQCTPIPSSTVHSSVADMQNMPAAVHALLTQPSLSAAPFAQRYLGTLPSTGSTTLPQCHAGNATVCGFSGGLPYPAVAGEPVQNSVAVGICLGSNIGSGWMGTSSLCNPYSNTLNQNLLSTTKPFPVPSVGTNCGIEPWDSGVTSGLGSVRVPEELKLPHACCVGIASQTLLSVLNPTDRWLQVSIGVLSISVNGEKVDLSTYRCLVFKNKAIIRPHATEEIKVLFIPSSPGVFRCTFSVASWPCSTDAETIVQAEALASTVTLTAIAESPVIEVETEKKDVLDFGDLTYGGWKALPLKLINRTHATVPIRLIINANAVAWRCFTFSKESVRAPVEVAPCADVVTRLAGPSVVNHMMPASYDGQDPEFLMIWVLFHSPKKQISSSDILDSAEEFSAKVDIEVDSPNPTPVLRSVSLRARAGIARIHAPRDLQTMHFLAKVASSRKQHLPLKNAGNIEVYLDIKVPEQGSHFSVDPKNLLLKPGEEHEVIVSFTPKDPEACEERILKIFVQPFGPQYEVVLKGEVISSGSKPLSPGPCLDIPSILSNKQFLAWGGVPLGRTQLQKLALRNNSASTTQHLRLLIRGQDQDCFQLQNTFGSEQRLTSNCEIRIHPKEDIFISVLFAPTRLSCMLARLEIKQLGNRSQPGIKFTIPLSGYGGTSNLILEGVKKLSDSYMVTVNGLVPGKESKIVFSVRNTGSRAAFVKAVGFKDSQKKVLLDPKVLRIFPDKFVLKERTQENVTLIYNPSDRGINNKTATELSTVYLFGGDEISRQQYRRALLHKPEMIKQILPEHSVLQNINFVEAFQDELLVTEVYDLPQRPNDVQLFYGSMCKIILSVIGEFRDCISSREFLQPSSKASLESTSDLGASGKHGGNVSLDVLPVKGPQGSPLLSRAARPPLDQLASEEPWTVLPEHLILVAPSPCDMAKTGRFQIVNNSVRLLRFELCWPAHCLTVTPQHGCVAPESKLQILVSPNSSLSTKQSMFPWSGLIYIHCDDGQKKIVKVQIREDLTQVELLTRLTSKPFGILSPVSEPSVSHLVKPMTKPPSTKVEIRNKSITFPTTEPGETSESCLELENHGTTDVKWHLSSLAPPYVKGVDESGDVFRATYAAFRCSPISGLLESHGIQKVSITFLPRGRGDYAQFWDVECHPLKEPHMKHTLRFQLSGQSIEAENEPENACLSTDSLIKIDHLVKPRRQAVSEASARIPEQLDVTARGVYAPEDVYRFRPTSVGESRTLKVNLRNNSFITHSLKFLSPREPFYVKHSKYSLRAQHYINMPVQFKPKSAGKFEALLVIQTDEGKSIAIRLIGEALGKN
UniProt Q9Y297: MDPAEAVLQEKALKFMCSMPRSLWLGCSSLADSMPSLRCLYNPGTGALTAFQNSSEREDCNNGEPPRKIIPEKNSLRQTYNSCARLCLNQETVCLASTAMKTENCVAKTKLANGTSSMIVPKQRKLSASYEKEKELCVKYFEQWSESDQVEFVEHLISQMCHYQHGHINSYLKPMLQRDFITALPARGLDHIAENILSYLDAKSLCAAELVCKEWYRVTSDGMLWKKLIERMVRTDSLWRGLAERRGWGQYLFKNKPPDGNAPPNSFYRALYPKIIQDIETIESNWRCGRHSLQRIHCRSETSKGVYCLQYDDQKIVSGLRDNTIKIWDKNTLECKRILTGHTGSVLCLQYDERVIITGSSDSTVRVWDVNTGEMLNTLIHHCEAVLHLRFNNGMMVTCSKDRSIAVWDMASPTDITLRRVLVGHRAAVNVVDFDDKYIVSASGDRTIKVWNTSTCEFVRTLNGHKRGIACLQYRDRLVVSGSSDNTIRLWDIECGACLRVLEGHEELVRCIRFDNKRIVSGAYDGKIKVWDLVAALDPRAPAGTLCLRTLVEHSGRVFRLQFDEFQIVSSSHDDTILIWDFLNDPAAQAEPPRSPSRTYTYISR
UniProt Q96GD4: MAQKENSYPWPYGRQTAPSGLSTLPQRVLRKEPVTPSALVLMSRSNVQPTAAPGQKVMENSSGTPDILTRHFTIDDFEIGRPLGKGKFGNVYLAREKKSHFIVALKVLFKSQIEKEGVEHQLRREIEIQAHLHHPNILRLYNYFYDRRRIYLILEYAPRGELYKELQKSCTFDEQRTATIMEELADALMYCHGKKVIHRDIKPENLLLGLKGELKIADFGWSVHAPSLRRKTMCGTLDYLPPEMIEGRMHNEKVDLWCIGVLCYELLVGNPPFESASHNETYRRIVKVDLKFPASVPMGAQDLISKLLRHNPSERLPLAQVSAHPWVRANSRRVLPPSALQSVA

Assays:
[1] = molecular target: T1, 3Flag-DVL2 C-terminal half (Δ1–360) (human) (UniProt O14641); experiment: co-IP; HEK293T co-transfected; lysis in TNTE 0.5% (50 mM Tris-HCl pH 7.4, 150 mM NaCl, 1 mM EDTA, 0.5% Triton X-100); M2 anti-Flag antibody and Protein G-Sepharose, 4 °C; HA-tagged partner detected by western blotting
T1 sequence: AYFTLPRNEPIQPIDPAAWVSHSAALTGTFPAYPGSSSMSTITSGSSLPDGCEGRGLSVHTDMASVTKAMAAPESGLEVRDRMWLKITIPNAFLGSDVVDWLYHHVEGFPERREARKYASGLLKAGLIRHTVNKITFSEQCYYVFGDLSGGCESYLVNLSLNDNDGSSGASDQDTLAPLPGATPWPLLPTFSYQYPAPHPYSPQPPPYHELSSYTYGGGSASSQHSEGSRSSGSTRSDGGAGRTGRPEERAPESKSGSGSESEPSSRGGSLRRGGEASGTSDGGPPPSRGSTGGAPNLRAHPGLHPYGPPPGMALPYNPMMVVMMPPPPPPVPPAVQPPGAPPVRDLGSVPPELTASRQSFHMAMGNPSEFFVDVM

[2] = molecular target: T2, 3Flag-DVL2 N-terminal half (Δ361–736) (human) (UniProt O14641); experiment: as above
T2 sequence: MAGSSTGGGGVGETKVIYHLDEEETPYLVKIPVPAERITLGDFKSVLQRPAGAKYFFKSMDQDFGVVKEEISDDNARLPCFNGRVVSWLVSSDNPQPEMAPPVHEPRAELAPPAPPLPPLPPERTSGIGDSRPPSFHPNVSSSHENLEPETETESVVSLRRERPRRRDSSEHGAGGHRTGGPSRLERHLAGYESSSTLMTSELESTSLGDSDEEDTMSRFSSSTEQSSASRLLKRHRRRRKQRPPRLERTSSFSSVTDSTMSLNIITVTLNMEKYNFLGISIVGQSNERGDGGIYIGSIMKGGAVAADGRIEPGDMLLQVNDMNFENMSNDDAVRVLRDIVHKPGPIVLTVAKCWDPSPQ

[3] = molecular target: CEP192 isoform-2 (1–1941) (human) (UniProt Q8TEP8); experiment: LUMIER (luminescence-based mammalian interactome; co-IP with luciferase read-out); HEK293T co-transfected in 96-well plates with a Renilla luciferase fusion and a Flag-tagged protein; after 48 h lysates immunoprecipitated in plates coated with M2 anti-Flag antibody; luciferase fusion detected with Renilla substrate; also done after CEP192 RNAi (Supplementary Fig. 8a)
[4] = molecular target: CEP192 isoform-1 (AA 1–2537) (human) (UniProt Q8TEP8); experiment: as above
[5] = molecular target: T1, 3Flag-DVL2 C-terminal half (Δ1–360) (human); experiment: as above
[6] = molecular target: T2, 3Flag-DVL2 N-terminal half (Δ361–736) (human); experiment: as above
[7] = molecular target: 3 Flag-BTRC (UniProt Q9Y297); experiment: co-IP; HEK293T transfected with 3HA-PLK4, 3 Flag-BTRC and increasing amounts of T7-DVL2-wt or T7-DVL2 (Δ361–736); anti-Flag immunoprecipitation; signal ratio HA-PLK4/3F-BTRC in the immunoprecipitates
[8] = molecular target: T1, 3Flag-DVL2 C-terminal half (Δ1–360) (human); experiment: LUMIER (luminescence-based mammalian interactome; co-IP with luciferase read-out); HEK293T co-transfected in 96-well plates with a Renilla luciferase fusion and a Flag-tagged protein; after 48 h lysates immunoprecipitated in plates coated with M2 anti-Flag antibody; luciferase fusion detected with Renilla substrate; also done after CEP192 RNAi (Supplementary Fig. 8a); remark: listed apart in the source
[9] = molecular target: T2, 3Flag-DVL2 N-terminal half (Δ361–736) (human); experiment: as above; remark: listed apart in the source

binding [1]: no binding
binding [2]: no binding
Molecule: 3HA-AURKB (from UniProt Q96GD4 1-344)

binding [7]: binds
binding [1]: no binding
binding [2]: no binding
B1: 3HA-PLK4 (protein, UniProt O00444 1-970)
chain: MATCIGEKIEDFKVGNLLGKGSFAGVYRAESIHTGLEVAIKMIDKKAMYKAGMVQRVQNEVKIHCQLKHPSILELYNYFEDSNYVYLVLEMCHNGEMNRYLKNRVKPFSENEARHFMHQIITGMLYLHSHGILHRDLTLSNLLLTRNMNIKIADFGLATQLKMPHEKHYTLCGTPNYISPEIATRSAHGLESDVWSLGCMFYTLLIGRPPFDTDTVKNTLNKVVLADYEMPSFLSIEAKDLIHQLLRRNPADRLSLSSVLDHPFMSRNSSTKSKDLGTVEDSIDSGHATISTAITASSSTSISGSLFDKRRLLIGQPLPNKMTVFPKNKSSTDFSSSGDGNSFYTQWGNQETSNSGRGRVIQDAEERPHSRYLRRAYSSDRSGTSNSQSQAKTYTMERCHSAEMLSVSKRSGGGENEERYSPTDNNANIFNFFKEKTSSSSGSFERPDNNQALSNHLCPGKTPFPFADPTPQTETVQQWFGNLQINAHLRKTTEYDSISPNRDFQGHPDLQKDTSKNAWTDTKVKKNSDASDNAHSVKQQNTMKYMTALHSKPEIIQQECVFGSDPLSEQSKTRGMEPPWGYQNRTLRSITSPLVAHRLKPIRQKTKKAVVSILDSEEVCVELVKEYASQEYVKEVLQISSDGNTITIYYPNGGRGFPLADRPPSPTDNISRYSFDNLPEKYWRKYQYASRFVQLVRSKSPKITYFTRYAKCILMENSPGADFEVWFYDGVKIHKTEDFIQVIEKTGKSYTLKSESEVNSLKEEIKMYMDHANEGHRICLALESIISEEERKTRSAPFFPIIIGRKPGSTSSPKALSPPPSVDSNYPTRERASFNRMVMHSAASPTQAPILNPSMVTNEGLGLTTTASGTDISSNSLKDCLPKSAQLLKSVFVKNVGWATQLTSGAVWVQFNDGSQLVVQAGVSSISYTSPNGQTTRYGENEKLPDYIKQKLQCLSSILLMFSNPTPNFH

The next lines start with the molecule.

Molecule: Renilla luciferase (RL)-AURKB (from UniProt Q96GD4 1-344)
binding [3]: binds
binding [4]: binds
binding [5]: no binding
binding [6]: no binding

B2: Renilla luciferase (RL)-PLK4 (protein, UniProt O00444 1-970)
chain: B1 chain
binding [8]: no binding
binding [9]: no binding
